According to the supplement of paper PMC12632987:
In all, about 1,800 sequences were measured (“median log2 fold change of GCK-ALFA target abundance (FLAG IP / Myc IP barcode read proportion)”: median about 0.14, lowest 2% from about -0.84 on). The list shows a part of the results.

T1: TRAF2, Q12933
T1 chain: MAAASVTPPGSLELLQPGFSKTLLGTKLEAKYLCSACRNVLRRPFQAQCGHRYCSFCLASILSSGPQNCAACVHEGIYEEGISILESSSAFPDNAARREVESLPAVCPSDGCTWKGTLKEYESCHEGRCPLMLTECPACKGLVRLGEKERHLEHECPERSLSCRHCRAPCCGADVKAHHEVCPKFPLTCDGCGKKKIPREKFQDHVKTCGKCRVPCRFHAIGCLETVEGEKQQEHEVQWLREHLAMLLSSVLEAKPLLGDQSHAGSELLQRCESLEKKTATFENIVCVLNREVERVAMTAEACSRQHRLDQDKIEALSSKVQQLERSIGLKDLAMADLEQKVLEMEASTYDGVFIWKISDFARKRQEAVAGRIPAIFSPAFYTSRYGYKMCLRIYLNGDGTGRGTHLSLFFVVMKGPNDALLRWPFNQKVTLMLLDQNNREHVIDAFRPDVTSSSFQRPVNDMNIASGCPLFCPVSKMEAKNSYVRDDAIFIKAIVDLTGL

B1: traf2_out_3_89_2301 (protein)
chain: AAAEAAKIEAARARAERYARGFRKSARFVAKQMIADGMSLDTLRGVLEAARNALVEVFREELKEQGLSEETIEELVKELTEELEKIVEEILEEAEKKRAE
B2: traf2_out_13_95_1219 (protein)
chain: SAEANEKIREISNKMLEESEKIIEDLAEKLKPFPETQPYIEEIKHALKTRGITEAIHVLREASEKFPEVKELFDEAIEELEKIRRDAGKEVAKILKEDEE
B3: traf2_out_6_156_2455 (protein)
chain: MLEEILKKTKEEIKEGIKKLAEASEEKKIRYISRIAGAVYRGLQAAREAGASLEELEKFAEELLKTAEEEAKKAGLDEKTKNLLLASLRAVADVALAAAR
B4: traf2_out_17_162_1623 (protein)
chain: SPEEEELKRYEEELKELEKEKKELEKKAEKIDELSKEELTDLLVEASEARRRARELAERIERKREELNDPRLEELLKRAEEIAEEFQRIANKFYKKLEEK
B5: traf2_out_6_3_2528 (protein)
chain: SAESLAADARTILENMGITTAEQLLALVKAEVNAVRQLVSRPDVDRADLAGARSVLALTRAMVEVAAETLPSLTEEQKKEALALIEEAEKLVEQKAAELE
B6: traf2_out_16_171_1436 (protein)
chain: MKEEEEKKLKEEIDKKAKELKERMDTAVEVAPLISKETGLSMEQIAAGFRSTMTDRIEALEKYFTEKAKDLSEEVKEYIKEKLEEVRKHLEEAVKKILAL
B7: traf2_out_18_167_1829 (protein)
chain: EEEIRKKKSELTDKMVEWSEVRRRAQALLQRLEADPSLLPEVLEELEEIAERTGRYLERVEAIKELPPEEALAATKELLEEIIEDAQRKMNELYKKYEEL
B8: traf2_out_6_156_2421 (protein)
chain: MKEEILKEAEEKIKELIKKLAKASEEKKIRYISEIAGAVYRALQKMREAGASVEEIKEAVERLEKVAKEEAKKAGLPQETIDLLLASIRAVGEVALREAE
B9: traf2_out_13_95_1155 (protein)
chain: SKELAEKIMEIADRMLDEALAVLDELLAAAKAAGKLEEEVARARHLAEHHSINEAIALLRELAKAHPEFKEELDAAIARLEALRREAGREVAELIKKEKE
B10: traf2_out_6_156_2411 (protein)
chain: MVEEIFKETMEKVKKLIKELAKASEEKKIQYISKIAGEVYKALQKLREAGASLEEIKEFSERLKKEIKALAEEAGLPEETRNLLLSAVNAVFEVAIEEAK
B11: traf2_out_18_3_1905 (protein)
chain: KEKERQELSDKIDEIVDEAEARAREVLARLKAAHPEVAAELDALEADLAAGGGAFGVLEALAELARRLGEEELAAEIEAFIREKRKKFQELVDKYEELIK
B12: traf2_out_18_117_1766 (protein)
chain: MTREEIIERLEEIAEELGRKASELGKLMLENWEKLSPEEKSEIMDVLADLTEVRREALELIARIRAGEIPVEEAIERAEEIEKRAKEALEKAEKMIEKIK
B13: traf2_out_5_63_2346 (protein)
chain: SEREELTALAREADRLAREIIAAAKAGDEARAAALLKRAVEDPELARLVLGILKGEAKYYKLLGDKPEEAAIAERLAAELEALAAERAAAEAAAAAAAAA
B14: traf2_out_20_3_2223 (protein)
chain: EELKREIEEELRKIEELLEKAKPLLPEEDYKKLKELLEKAREALETDLTDALVYLSELRRLALELAQEARAAGNEELAKLLEEMAERANRAAGLVLKAIE
B15: traf2_out_15_180_1325 (protein)
chain: MTEEELEKRIELANKVADKAQDRLAALLAAHPDLTPEERAALRALARSLTTLYMNGEEEEAAAALEAAKARLSPRAAAVADELAEFIKEEVKKAKEELKK
B16: traf2_out_11_155_758 (protein)
chain: DTLRAKANAINDAAMEIADKIDAFIEEVIAEVEKEDPEVAKRIRAALEKHRDASARSKALIVARVLKEAGYEEKAKRVEEFLEKAQKELNKKVKEIEEAA
B17: traf2_out_16_62_1466 (protein)
chain: EEEKERLLEEADEKIDAAQELRDAVITYVSGGDREAALAKIEELAKKYGPLVKELLEALKKAEADPENREEYLAKALELATEVRTRLVKEALRLEEEAKK
B18: traf2_out_13_95_1127 (protein)
chain: SAETAKKIMEVADEMIDKSIAILEALKAKMEAKGLLKEEMDEVLHLAKYQSIREAIHKLKELAKAHPEVAADLNAAIAELEALIREAGKRVAEILKEEQE
B19: traf2_out_1_27_1006 (protein)
chain: STEEERRLLREANRAIGRASPEEAVEIIRRAVREALERGLDSPLHIATVLILSLGDEETRERALEAVEEVLREAGVSEEEIALLRERVRSGWERRDRLLA
B20: traf2_out_20_3_2073 (protein)
chain: EELLKQLEEELDKALALLKEAAALADPETAAELNALIAELKASRSLSISDRLVTISEVRRRVLELRERALAAGREELAAVLDKAADALNRAAQLAYKILQ
B21: traf2_out_6_156_2419 (protein)
chain: KKEEILKKTLEEIKKLIKELSKASEEKKIAYISKIAGTVKRGLEELRKLGASKEEIKEFVEKVKKEAKEEAKKEGLDESTINLLLSSINAVGDVAIREAE
B22: traf2_out_13_95_1103 (protein)
chain: SEETAKKIMEVADKMLDKVEELLEKLLEKAKKAGKLEEEIEKALHLARYQSINEAIHLLKELAKKYPEFKEELEETIKEIEALRKQAGKEVAKIIKEEKE
B23: traf2_out_19_16_1991 (protein)
chain: SEEEAKKLREEMKKHLDEALKLAKEAVENLEELSREELMDALVEISELVRKAKEALQKFLELAKDDPELRKEVTEEFDEKLDEIQRLMTIIVDRIEELLK
B24: traf2_out_11_104_647 (protein)
chain: LTREQAREFNDFAMEARDRAAALLARVAEHLRAAGHEEEAARVEALLAHPGSGISSFRNLLEELLPRLDPESAAVARAAIAELEALQKEVSEKLNELEKK
B25: traf2_out_6_156_2427 (protein)
chain: MVEEILKETLKEIKELIKELSKASEEKKIRYINKIAGTVYRALQKLREIGASVEELKKFGEEVIKKAKEWAKEEGLPESTINLLLSSLNAVTDVAIAEAK
B26: traf2_out_14_154_1270 (protein)
chain: DELWAELEYHSAMRRLYDSVVESMERLSVEETIAHLRAATDLVVARVPEKAEEIRARAAEIEARLAGSPEEREALLKELKAKAEEEAKKAREAFKEIEKK
B27: traf2_out_20_3_2255 (protein)
chain: EELREKALEALEKAEKILKELEPKLPEEDAKALKEALEKAREAFETDYRDALVYVSELRRLALELAEKARAAGDEETAKKLEELAEEAQRAAYYLSKIIE
B28: traf2_out_17_162_1473 (protein)
chain: MSIEERVAALEAELAALREERERLEKELERLEEMSKEEITDLLVRASEARRRARQLAEEFRALAPEIGEERAAALAAEAEAVAEELQRIANKIYEELEKK
B29: traf2_out_18_117_1774 (protein)
chain: SEREEIIERLERLAEELGRAASRLGKAVLENWEKLTPEEKSEAMDVLADLSRVRREALELIHRIREEGLPLEEARREAERLEEEARRALERAEAMLKRIE

Biological target: T1, TRAF2, Q12933
Test: median log2 fold change of GCK-ALFA target abundance (FLAG IP / Myc IP barcode read proportion) (log2 ratio); each designed protein is fused to an ALFA-tag nanobody in HEK293 cells to bring the named protein to FLAG-tagged glucokinase (GCK); Myc marks an untargeted standard; higher = target protein stabilised (more abundant)
Conditions: target protein: 3xFLAG-MCP-GCK-ALFA reporter; HEK293 landing pad (RPLP)
How it was run: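 Binders fused to an ALFA nanobody were recombined as a library into HEK293 landing-pad cells, which were induced with 2 μg mL^−1 doxycycline and then transfected to express a FLAG-tagged target and a Myc-tagged standard. After 48 h, circular RNA barcodes recovered by anti-FLAG and anti-Myc immunoprecipitation of lysates were reverse transcribed, amplified and sequenced. Each binder's target abundance is the median log2 ratio of FLAG to Myc barcode read proportions, from barcodes present at ≥10^−7 in both replicates, binders carrying ≥3 barcodes per replicate, a 10^−6 pseudocount and pooled replicates.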

Row | Binder | median log2 fold change
1 | B1 | -0.974
2 | B2 | 0.0665
3 | B3 | -0.358
4 | B4 | 0.4
5 | B5 | -0.59
6 | B6 | 0.0522
7 | B7 | 0.126
8 | B8 | -0.0921
9 | B9 | -0.372
10 | B10 | -0.15
11 | B11 | 0.114
12 | B12 | 0.128
13 | B13 | -0.285
14 | B14 | 0.163
15 | B15 | 0.414
16 | B16 | 0.218
17 | B17 | 0.00239
18 | B18 | -0.427
19 | B19 | 0.209
20 | B20 | -0.332
21 | B21 | 0.174
22 | B22 | -1.3
23 | B23 | 0.0861
24 | B24 | 0.215
25 | B25 | -0.0638
26 | B26 | 0.199
27 | B27 | 0.327
28 | B28 | 0.295
29 | B29 | -0.189
